The other results are listed elsewhere or left out.
These compounds were tested on S. aureus RN4220 (assay: growth inhibition call (relative growth <= 0.2)). Settings: 50 µM.

Growth inhibition call, inactive:
COc1ccc(CN(C)C[C@@H]2Oc3ccc(NS(=O)(=O)c4c(C)noc4C)cc3C(=O)N([C@H](C)CO)C[C@H]2C)cc1
CNC(=O)C[C@H]1CC[C@@H]2[C@H](COC[C@@H](O)CN2C(=O)c2ccc3c(c2)OCO3)O1
O=C(C[C@@H]1C=C[C@H](NC(=O)C2CC2)[C@H](CO)O1)NCCCN1CCOCC1
Cc1noc(C)c1NC(=O)Nc1ccc2c(c1)C(=O)N([C@H](C)CO)C[C@@H](C)[C@@H](CN(C)S(=O)(=O)c1ccccc1)OCCCC[C@H](C)O2
COc1ccc(CN(C)C[C@H]2Oc3c(NC(=O)CCCCCC(=O)Nc4ccccc4N)cccc3C(=O)N([C@@H](C)CO)C[C@@H]2C)cc1
C[C@@H]1CN([C@H](C)CO)S(=O)(=O)c2ccc(C#CC3(O)CCCC3)cc2O[C@H]1CN(C)C(=O)c1ccccc1
C[C@H]1CN([C@@H](C)CO)C(=O)c2cccc(NC(=O)Nc3ccccc3)c2O[C@@H]1CN(C)Cc1ccc(C(=O)Nc2ccccc2N)cc1
C[C@H]1CN([C@@H](C)CO)C(=O)c2cc(NC(=O)Cn3cnnn3)ccc2O[C@@H]1CN(C)Cc1ccc2c(c1)OCO2
O=C(C[C@H]1CC[C@H](NC(=O)CN2CCOCC2)[C@H](CO)O1)NCc1cccc(F)c1
C[C@@H]1CN([C@H](C)CO)C(=O)c2cc(NC(=O)CCC(F)(F)F)ccc2O[C@@H](C)CCCCO[C@@H]1CN(C)Cc1ccc(C(=O)O)cc1
C[C@H]1CN([C@@H](C)CO)C(=O)Cc2cc(NC(=O)Nc3ccc4c(c3)OCO4)ccc2O[C@H]1CN(C)Cc1ccc(-c2ccccc2)cc1
CN1CCN(C(=O)C[C@H]2CC[C@@H](NC(=O)Cc3ccccn3)[C@@H](CO)O2)CC1
C[C@@H]1CN([C@H](C)CO)C(=O)c2cc(NC(=O)Nc3ccc(F)cc3)ccc2O[C@@H]1CN(C)S(=O)(=O)c1cn(C)cn1
C[C@H](CO)N1C[C@H](C)[C@@H](CN(C)Cc2ccc(Oc3ccccc3)cc2)Oc2ccc(NC(=O)NC3CCCCC3)cc2CC1=O
Cc1ccc(S(=O)(=O)N[C@@H](Cc2ccccc2)C(=O)NCCCn2cc(-c3ccccc3N)nn2)cc1
Cc1noc(C)c1NC(=O)Nc1ccc2c(c1)C(=O)N([C@@H](C)CO)C[C@H](C)[C@H](CN(C)Cc1ccc3c(c1)OCO3)OCCCC[C@@H](C)O2
Cn1ncc2c(N3CCCC3)ncnc21
Cc1ccc(S(=O)(=O)Nc2ccc3c(c2)C(=O)N([C@H](C)CO)C[C@H](C)[C@@H](CN(C)C(=O)CCC(F)(F)F)OCCCC[C@H](C)O3)cc1
C[C@H]1CCCCO[C@H](CN(C)C(=O)Nc2ccc(C(F)(F)F)cc2)[C@@H](C)CN([C@@H](C)CO)C(=O)c2cc(NC(=O)Nc3ccc(F)cc3)ccc2O1
C[C@H](CO)N1C[C@H](C)[C@H](CN(C)Cc2ccc(Oc3ccccc3)cc2)Oc2ccc(NC(=O)CCC(F)(F)F)cc2CC1=O
CO[C@@H](CN(C)S(=O)(=O)c1cccc(Cl)c1)[C@H](C)CN([C@H](C)CO)S(=O)(=O)c1ccc(Cl)cc1
O=C(NC1CC1)[C@@H]1c2ccccc2C(=O)N(Cc2cc(F)cc(C(F)(F)F)c2)[C@H]1c1ccc(CO)cc1
Cc1ccc(S(=O)(=O)Nc2ccc3c(c2)C(=O)N([C@H](C)CO)C[C@@H](C)[C@H](CN(C)Cc2ccc(Oc4ccccc4)cc2)O3)cc1
COCCNC(=O)C[C@@H]1C[C@H]2c3cc(NC(=O)Nc4ccc(C(F)(F)F)cc4)ccc3O[C@H]2[C@H](CO)O1

— the antibiotic and cytotoxicity screens of Wong et al. (2023)
